Source: PMC8462379
Results are given in words; binding and its absence hold for the method and conditions named. For some assays here: Binding seen in cells or lysates may run through a third protein. Some binding calls cover weakened binding; strength is not graded here.

By UniProt entry, the sequences of proteins in these tests, tags left out. Where a name states a change or a piece, a line headed by the entry shows the natural chain unless it says otherwise. Residues count along the entry.
UniProt O48963: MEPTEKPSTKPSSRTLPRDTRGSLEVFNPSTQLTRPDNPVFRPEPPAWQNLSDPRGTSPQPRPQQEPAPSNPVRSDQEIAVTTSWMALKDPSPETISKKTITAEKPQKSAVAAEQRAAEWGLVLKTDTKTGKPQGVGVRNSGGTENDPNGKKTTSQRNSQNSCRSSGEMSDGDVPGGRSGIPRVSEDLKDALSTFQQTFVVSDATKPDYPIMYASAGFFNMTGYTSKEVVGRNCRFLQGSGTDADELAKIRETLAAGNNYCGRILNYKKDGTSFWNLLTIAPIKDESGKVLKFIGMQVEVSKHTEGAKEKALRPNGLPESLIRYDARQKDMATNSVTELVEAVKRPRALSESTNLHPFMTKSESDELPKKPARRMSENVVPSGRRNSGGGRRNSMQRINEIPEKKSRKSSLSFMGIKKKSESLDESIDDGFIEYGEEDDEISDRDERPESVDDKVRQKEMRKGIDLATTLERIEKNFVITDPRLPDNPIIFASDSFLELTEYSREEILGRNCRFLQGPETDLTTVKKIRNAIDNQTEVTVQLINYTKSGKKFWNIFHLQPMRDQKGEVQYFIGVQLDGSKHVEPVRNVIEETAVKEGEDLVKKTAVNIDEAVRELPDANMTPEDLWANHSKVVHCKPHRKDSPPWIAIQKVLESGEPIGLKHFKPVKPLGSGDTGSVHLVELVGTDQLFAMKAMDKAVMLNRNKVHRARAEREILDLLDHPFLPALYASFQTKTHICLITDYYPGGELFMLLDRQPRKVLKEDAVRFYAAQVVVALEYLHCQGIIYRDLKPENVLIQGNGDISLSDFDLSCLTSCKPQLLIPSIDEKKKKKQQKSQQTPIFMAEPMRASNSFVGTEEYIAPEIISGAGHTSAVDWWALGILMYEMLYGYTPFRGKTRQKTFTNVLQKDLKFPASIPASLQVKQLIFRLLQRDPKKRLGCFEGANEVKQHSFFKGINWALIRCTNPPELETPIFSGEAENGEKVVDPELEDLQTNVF
N-terminal PHOT1 fragment (PHOT1N), amino acids 1-619, MYTH fusion: residues 1-619 of O48963
UniProt P93025: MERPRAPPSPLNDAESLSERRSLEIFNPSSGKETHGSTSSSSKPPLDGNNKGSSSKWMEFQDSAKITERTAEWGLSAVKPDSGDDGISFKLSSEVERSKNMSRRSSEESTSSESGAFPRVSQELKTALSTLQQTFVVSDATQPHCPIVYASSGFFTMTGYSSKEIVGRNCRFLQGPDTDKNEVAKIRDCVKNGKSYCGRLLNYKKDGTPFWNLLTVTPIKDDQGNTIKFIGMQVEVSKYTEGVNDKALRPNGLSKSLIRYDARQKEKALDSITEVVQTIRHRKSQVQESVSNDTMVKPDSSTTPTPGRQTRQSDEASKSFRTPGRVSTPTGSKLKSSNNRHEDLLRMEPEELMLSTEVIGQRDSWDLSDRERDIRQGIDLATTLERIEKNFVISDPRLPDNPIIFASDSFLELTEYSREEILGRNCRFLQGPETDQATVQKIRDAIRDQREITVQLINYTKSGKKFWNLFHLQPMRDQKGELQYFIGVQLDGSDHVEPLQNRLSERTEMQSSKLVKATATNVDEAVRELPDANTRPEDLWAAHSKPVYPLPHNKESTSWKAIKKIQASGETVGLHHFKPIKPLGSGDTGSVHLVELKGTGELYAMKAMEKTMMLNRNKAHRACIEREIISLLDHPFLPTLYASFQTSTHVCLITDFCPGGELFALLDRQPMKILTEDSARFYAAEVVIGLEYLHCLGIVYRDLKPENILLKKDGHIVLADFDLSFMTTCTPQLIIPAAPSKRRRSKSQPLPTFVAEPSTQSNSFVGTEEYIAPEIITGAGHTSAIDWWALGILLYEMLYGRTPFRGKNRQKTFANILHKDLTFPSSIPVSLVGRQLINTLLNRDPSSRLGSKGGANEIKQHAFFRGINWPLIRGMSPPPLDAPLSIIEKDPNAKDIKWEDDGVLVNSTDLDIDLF
N-terminal PHOT2 fragment (PHOT2N), amino acids 1-574, MYTH fusion: residues 1-574 of P93025
UniProt Q8GYH7: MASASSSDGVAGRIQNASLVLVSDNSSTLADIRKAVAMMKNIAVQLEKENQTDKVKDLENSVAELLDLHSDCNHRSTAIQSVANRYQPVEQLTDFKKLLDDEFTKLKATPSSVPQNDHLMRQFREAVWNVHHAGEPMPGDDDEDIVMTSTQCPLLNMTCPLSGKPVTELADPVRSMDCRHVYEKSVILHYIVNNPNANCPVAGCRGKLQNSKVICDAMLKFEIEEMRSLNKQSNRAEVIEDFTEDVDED
UniProt Q680Q4: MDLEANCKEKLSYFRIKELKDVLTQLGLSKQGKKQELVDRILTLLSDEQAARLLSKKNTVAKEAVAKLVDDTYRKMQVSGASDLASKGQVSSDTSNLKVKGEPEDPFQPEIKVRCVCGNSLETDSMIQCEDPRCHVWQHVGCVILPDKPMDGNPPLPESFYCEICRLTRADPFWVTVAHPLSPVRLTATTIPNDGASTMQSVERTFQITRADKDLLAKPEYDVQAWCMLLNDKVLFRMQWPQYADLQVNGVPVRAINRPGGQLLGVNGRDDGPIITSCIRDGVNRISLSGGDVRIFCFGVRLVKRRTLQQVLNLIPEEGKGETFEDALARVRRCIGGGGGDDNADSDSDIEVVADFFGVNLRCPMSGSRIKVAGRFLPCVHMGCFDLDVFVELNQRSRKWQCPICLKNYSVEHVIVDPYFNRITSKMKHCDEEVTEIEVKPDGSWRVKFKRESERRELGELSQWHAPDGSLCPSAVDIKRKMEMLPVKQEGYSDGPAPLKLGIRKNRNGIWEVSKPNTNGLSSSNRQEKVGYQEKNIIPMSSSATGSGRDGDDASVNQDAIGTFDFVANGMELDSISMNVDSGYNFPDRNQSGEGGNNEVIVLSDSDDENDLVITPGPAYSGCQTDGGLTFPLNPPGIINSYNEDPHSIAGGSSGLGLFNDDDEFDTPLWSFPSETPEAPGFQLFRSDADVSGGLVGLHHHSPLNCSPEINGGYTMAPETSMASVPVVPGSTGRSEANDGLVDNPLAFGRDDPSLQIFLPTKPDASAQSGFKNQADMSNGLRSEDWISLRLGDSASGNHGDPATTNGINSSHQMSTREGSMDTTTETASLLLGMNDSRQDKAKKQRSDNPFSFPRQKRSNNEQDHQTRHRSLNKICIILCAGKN
UniProt P55852: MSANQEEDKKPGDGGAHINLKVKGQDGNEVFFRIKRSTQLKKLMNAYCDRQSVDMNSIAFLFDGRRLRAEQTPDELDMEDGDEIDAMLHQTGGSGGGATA
UniProt Q9FLP6: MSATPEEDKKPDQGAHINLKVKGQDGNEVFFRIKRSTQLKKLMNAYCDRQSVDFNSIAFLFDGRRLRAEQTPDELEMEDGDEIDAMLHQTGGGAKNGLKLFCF
UniProt Q9FLP5: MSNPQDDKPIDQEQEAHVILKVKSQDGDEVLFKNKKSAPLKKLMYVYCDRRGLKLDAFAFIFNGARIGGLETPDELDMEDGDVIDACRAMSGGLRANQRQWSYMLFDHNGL
UniProt Q8VZI7: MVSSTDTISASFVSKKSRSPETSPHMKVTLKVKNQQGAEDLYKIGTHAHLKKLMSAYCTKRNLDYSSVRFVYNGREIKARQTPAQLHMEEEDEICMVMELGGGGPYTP

Columns and labels:
[1] = molecular target: N-terminal PHOT1 fragment (PHOT1N), amino acids 1-619, MYTH fusion (Arabidopsis thaliana) (UniProt O48963); test: two-hybrid; split-ubiquitin-based membrane yeast two hybrid (MYTH); phot parts as baits, SUMO proteins as preys; growth on SC-Leu-Trp-His with 5 mM 3-AT, 30°C, 4 d, in darkness or under blue light (about 20 µmol m^-2 s^-1, 455 nm)
[2] = molecular target: N-terminal PHOT2 fragment (PHOT2N), amino acids 1-574, MYTH fusion (Arabidopsis thaliana) (UniProt P93025); test: as above
[3] = molecular target: nGFP-PHOT1 (Arabidopsis thaliana) (UniProt O48963); test: split reporter; BiFC with nGFP and cGFP fusions co-expressed transiently in N. benthamiana leaf epidermal cells; confocal microscopy 2 d after transformation
[4] = molecular target: nGFP-PHOT2 (Arabidopsis thaliana) (UniProt P93025); test: as above
[5] = molecular target: PHOT1-cGFP (Arabidopsis thaliana) (UniProt O48963); test: as above
[6] = molecular target: PHOT2-cGFP (Arabidopsis thaliana) (UniProt P93025); test: as above

| binding [5] | binding [6] | Substance | further results |
| --- | --- | --- | --- |
| – | – | MMS21, MYTH fusion (from UniProt Q8GYH7 1-249) (enzyme) | binding [1]: binds weakly; binding [2]: binds weakly |
| – | – | MMS21-cGFP (from UniProt Q8GYH7 1-249) (enzyme) | binding [3]: binds; binding [4]: binds |
| – | – | SIZ1, MYTH fusion (from UniProt Q680Q4 1-884) (enzyme) | binding [1]: binds weakly; binding [2]: binds weakly |
| binds | binds | nGFP-SUMO1 (from UniProt P55852 1-100) | – |
| binds | binds | nGFP-SUMO2 (from UniProt Q9FLP6 1-103) | – |
| binds | binds | nGFP-SUMO3 (from UniProt Q9FLP5 1-111) | – |
| no binding | no binding | nGFP-SUMO5 (from UniProt Q8VZI7 1-108) | – |
